Over roughly 33,000 sequences, “E-score (-0.5 to 0.5)” has its median near -0.035; the highest 2% begin near 0.35. This is one part of the list.
Biological target: T1, Pdr3 (UniProt P33200)
T1 sequence: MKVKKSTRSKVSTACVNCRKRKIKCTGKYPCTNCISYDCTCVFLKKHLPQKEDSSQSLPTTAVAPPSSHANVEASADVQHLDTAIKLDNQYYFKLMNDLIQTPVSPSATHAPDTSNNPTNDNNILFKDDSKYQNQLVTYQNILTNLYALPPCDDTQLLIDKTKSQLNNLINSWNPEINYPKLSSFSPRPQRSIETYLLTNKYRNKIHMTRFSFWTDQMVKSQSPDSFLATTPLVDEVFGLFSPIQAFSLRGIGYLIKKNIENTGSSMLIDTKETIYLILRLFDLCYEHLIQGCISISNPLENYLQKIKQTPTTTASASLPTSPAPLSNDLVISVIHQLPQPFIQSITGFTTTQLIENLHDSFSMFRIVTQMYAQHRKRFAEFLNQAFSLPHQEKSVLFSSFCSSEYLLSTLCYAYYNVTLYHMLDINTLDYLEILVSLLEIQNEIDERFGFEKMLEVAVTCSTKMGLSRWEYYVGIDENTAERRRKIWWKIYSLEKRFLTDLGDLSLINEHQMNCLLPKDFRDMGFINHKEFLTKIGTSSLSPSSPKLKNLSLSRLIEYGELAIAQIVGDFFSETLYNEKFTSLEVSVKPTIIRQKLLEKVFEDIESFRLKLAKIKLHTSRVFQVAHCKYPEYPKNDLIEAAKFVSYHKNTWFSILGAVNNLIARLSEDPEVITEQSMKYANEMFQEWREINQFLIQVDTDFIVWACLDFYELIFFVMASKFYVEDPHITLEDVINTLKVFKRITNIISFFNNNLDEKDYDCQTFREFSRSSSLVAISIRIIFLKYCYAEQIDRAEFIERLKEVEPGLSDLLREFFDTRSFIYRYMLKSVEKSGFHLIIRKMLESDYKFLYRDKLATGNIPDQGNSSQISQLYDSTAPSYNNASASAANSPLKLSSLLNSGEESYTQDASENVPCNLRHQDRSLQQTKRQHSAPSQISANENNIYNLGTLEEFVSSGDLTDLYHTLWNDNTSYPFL
Test: PBM E-score (8-mer binding enrichment) (E-score (-0.5 to 0.5)); higher = stronger / more preferred TF binding; most listed sequences are background and not binding sites
Conditions: protein concentration: 200 nM; construct: GST-full length
Method in brief: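 Bound GST-tagged yeast transcription factors, applied at about 100-200 nM to double-stranded universal all-10-mer Agilent arrays, were detected with fluorescent anti-GST. Scans were normalised with masliner. A modified Wilcoxon-Mann-Whitney statistic, the E-score, was assigned to each ungapped eight-base word pooled with its reverse complement by the Universal PBM Analysis Suite.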

| Sequence | PBM E-score |
| --- | --- |
| AGAAGTCA | -0.0968 |
| ATACTGTC | 0.0455 |
| AGGCGCGC | 0.165 |
| CTCCTGCA | -0.244 |
| CATCCGAG | 0.225 |
| GGCACACA | 0.0165 |
| CGTGTTAA | -0.135 |
| GCTTTCAA | -0.14 |
| CGTGCCAC | -0.0378 |
| CGACAGAA | 0.188 |
| ACAAAGGG | -0.197 |
| CGGCTACG | 0.0442 |
| GAGTCTAA | -0.0923 |
| AATGAACC | -0.136 |
| ACCACCGT | 0.0414 |
| AATATTCC | 0.362 |
| ACGGGGGG | -0.222 |
| AGCCTCAC | -0.198 |
| CCGAATGA | 0.285 |
| CGGCGCAC | 0.318 |
| GCTCTGTA | -0.176 |
| AGTAAAAA | -0.0778 |
| AGTAGGGA | -0.146 |
| CTACGCTC | -0.152 |

| Sequence | PBM E-score |
| --- | --- |
| ATCTCCTC | 0.0159 |
| AAGGGTTA | -0.0743 |
| ATTTTGCG | 0.0291 |
| GCGCCCCC | -0.146 |
| CCGTCGAG | 0.224 |
| AAATAATT | 0.157 |
| GACGCCGC | 0.155 |
| ACCCGGCA | 0.256 |
| CCGCAATA | 0.224 |
| CAACAAAG | -0.0163 |
| ACAGTACG | 0.0261 |
| GATACGAA | 0.033 |
| CAAATCGA | -0.256 |
| ATACGTTC | -0.216 |
| GGTGCTTA | -0.163 |
| ACTCTATC | -0.109 |
| CGTTTGAA | -0.0722 |
| CGTACGAG | -0.135 |
| GCGTGAAC | -0.122 |
| CTATGAAG | -0.103 |
| AAGGTGGC | -0.0289 |
| ATGCGCAT | 0.165 |
| CGATGAGC | 0.0308 |
| AATAGTAC | -0.0262 |

| Sequence | PBM E-score |
| --- | --- |
| ATCGGGCG | 0.0205 |
| ACGCATGG | 0.0281 |
| GATATCGC | 0.101 |
| ACGTACGG | 0.0946 |
| GAATAGAA | 0.165 |
| AGACCGAA | 0.0314 |
| CTGCTAAG | -0.274 |
| AAGCCGTA | 0.0211 |
| GTGGGTCA | -0.0644 |
| AAGGCAGT | -0.037 |
| AAGGCATA | -0.143 |
| ACACAACG | -0.00062 |
| ACTAGACC | -0.0104 |
| AACTCGCC | 0.0238 |
| ATCGGTGC | 0.032 |
| AATCATTC | 0.179 |
| ACTTACCG | 0.233 |
| CACCTGTA | -0.224 |
| GGAGGCAC | -0.177 |
| ATACAAAG | 0.0438 |
| GCACACGA | -0.0879 |
| CGAGGGCA | 0.00512 |
| ATCGCTAA | -0.0537 |
| TACCCCTA | -0.0685 |

| Sequence | PBM E-score |
| --- | --- |
| ATATCAAA | 0.0882 |
| TAGATCTA | -0.243 |
| AGCCGTTC | 0.0546 |
| CGCAAGCG | -0.0182 |
| GGTCGGAC | 0.15 |
| AGTGTAGA | -0.358 |
| GACAGAGC | -0.289 |
| AACTGGGA | 0.059 |
| GCTACCCA | -0.166 |
| AAAAAGGG | 0.00252 |
| AGGGAAAA | -0.0229 |
| AGAGGGTC | -0.288 |
| CTGCATTC | 0.0676 |
| CAACACAC | -0.121 |
| AAGTCGTC | -0.211 |
| ATGATAAA | 0.0837 |
| CCCCAAAA | -0.0572 |
| ATATACGG | 0.0527 |
| CATCTAGG | -0.184 |
| CTTCGTAA | -0.21 |
| CCTAATAA | -0.201 |
| ATAAGCCC | -0.171 |
